Data reported in PubChem BioAssay AID485281 (National Center for Advancing Translational Sciences (NCATS), 2010).
Hit rate of the full screen: of about 350,000 compounds, about 260 (0.074%) were called active. Inconclusive results, whose numbers are uncertain, are shown with a selection of clear calls. Calls come from the whole dose curve; as a rule, active = well fitted inhibition curve with a large enough effect; inconclusive = small, poorly fitted or top-dose-only effect; inactive = no such curve, though single readings can be large or run the other way. Potencies beside an inconclusive call are fits to weak or partial responses and may not hold up.

molecular target: Ferritin light chain (Equus caballus) (UniProt P02791); assay: qHTS Assay for Identification of Novel General Anesthetics; conditions: apoferritin/1-aminoanthracene competitive binding, fluorescence; activity change, negative = displacement: at 77.5 µM (top of the series); note: nearly all actives have a fitted effect of over 20% in size
Procedure, shortened: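 10 uM apoferritin + 50% sat. 1-AMA, PBS; cpd 10 min RT; Ex380/Em535 endpoint; normalized to free probe vs complex; 4-param Hill fit; propofol titration as pos. ctrl.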
% is set by controls: 0 for no effect and ±100 for the full control effect; potency is the fitted concentration of half-maximal effect; tags give direction and shape of the fitted curve.

UniProt P02791, sequence (P02791 whole entry, looked up): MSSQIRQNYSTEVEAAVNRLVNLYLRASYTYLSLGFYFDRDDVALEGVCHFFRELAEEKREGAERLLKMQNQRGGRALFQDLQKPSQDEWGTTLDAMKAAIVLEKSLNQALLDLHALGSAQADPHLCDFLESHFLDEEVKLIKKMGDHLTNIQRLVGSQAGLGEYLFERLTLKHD

Potency, inactive:
CSc1ccc(CCNC(=O)NCc2noc3ccccc23)cc1
COc1ccc(C(=O)NC2CC2)cc1OC1CCN(C(C)CSC)CC1 (centres undefined)
COc1ccc(CCNC(=O)c2ccc(Cl)c(S(=O)(=O)N(C)c3ccccc3)c2)cc1
CCOc1ccc(/C=C/C(=O)c2ccccc2)cc1OC
CN(C)c1ccc(C2CC(c3cccc(NS(C)(=O)=O)c3)=NN2C(=O)c2ccccc2)cc1 (centres undefined)
CCOC(=O)c1ccc(NC(=O)c2nc[nH]c2C(=O)N2CCc3ccccc3C2)cc1
Cc1cc2c(NC(=O)Nc3ccccc3)cccc2nn1
CCCCOc1ccc(Cc2n[nH]c(=S)n2N)cc1
COc1ccc(C(=O)c2ccc(Cl)cc2)cc1
Clc1cncc(Cl)c1NNc1c2ccccc2nc2ccccc12
CCN1C(=O)C(CC(=O)Nc2ccc(OC)cc2)N(CCc2ccc(F)cc2)C1=S (centres undefined)
Cc1cc(C)c(NC(=O)CSc2ncc3c(n2)-c2cc(Cl)ccc2N(C)S3(=O)=O)c(C)c1

Potency, inconclusive:
CCn1c(SCC(=O)c2ccc(O)c(O)c2)nnc1-c1ccccc1OC 15.8 µM [inhibitor, partial curve]
CN(c1ccccc1)S(=O)(=O)c1ccc(NC(=O)c2nc(S(C)(=O)=O)ncc2Cl)cc1 10 µM [inhibitor, partial curve]
CC1CCN(S(=O)(=O)Cc2ccccc2Cl)CC1 39.8 µM [inhibitor, partial curve]
O=C(c1ccco1)c1nnn(Cc2ccccc2)c1-c1ccccc1 25.1 µM [inhibitor, partial curve]
CN1CCN(C(=S)c2cn(Cc3ccc(Br)cc3)c3ccccc23)CC1 15.8 µM [inhibitor, partial curve]
Cc1ccc(C)c(CN2C(=O)c3ccccc3S(=O)(=O)c3ccc(C(=O)OCC4CCCO4)cc32)c1 (centres undefined) 3.98 µM [inhibitor, full curve]
O=[N+]([O-])c1ccc(/C=N/n2c(COc3ccccc3)n[nH]c2=S)cc1 14.1 µM [inhibitor, partial curve]
CC(C)(C)c1ccc(-c2nc(C#N)c(NCCCn3ccnc3)o2)cc1 17.8 µM [inhibitor, partial curve]
Cc1ccccc1NC(=O)/C(=C/c1ccccc1)c1ccccc1 25.1 µM [inhibitor, partial curve]
COc1ccc(CNc2nc(-c3ccco3)nn2S(=O)(=O)c2ccc(Cl)cc2)cc1OC 39.8 µM [inhibitor, single point]
Cc1ccccc1COC(=O)c1cc([N+](=O)[O-])ccc1N1CCOCC1 31.6 µM [inhibitor, partial curve]
COc1ccccc1OCC(=O)OCC(=O)Nc1ncc(Cl)cc1Cl 35.5 µM [inhibitor, single point]
O=C(Nc1cccc(S(=O)(=O)Nc2ccccc2F)c1)c1ccc2ccccc2n1 10 µM [inhibitor, partial curve]
CC1CCN(C(=O)COC(=O)CCCN2C(=O)c3cccc4cccc(c34)C2=O)CC1 28.2 µM [inhibitor, partial curve]
Cc1ccc(NC(=O)CSc2nnc3ccc4ccccc4n23)cc1 10 µM [inhibitor, partial curve]
O=C(CNC(=O)c1ccco1)OCC(=O)c1ccccc1 50.1 µM [inhibitor, single point]
C/C(=N/NC(=O)CNC(=O)c1ccccn1)c1cccc([N+](=O)[O-])c1 25.1 µM [inhibitor, partial curve]
O=[N+]([O-])c1ccc(CSc2nnc(Cc3ccccc3)n2-c2ccc(F)cc2)cc1 15.8 µM [inhibitor, partial curve]
Cc1ccc(N2C(N)=C(C#N)C(c3cccs3)C3=C2CC(C)(C)CC3=O)cc1 (centres undefined) 56.2 µM [inhibitor, partial curve]
Cc1ccc(C(=O)C2=C(O)C(=O)N(Cc3ccco3)C2c2cccc(Cl)c2)o1 (centres undefined) 20 µM [inhibitor, partial curve]
COc1ccccc1/C=C/C(=O)Oc1cccc2cccnc12 35.5 µM [inhibitor, partial curve]
CCCSc1nnc(-c2c[nH]c3ccccc23)n1CC 28.2 µM [inhibitor, partial curve]
Cc1cc(C)cc(NC(=O)C2(c3ccccc3)CC2(Cl)Cl)c1 (centres undefined) 6.31 µM [inhibitor, partial curve]
O=C(N/N=C/c1cc([N+](=O)[O-])ccc1O)NC12CC3CC(CC(C3)C1)C2 35.5 µM [inhibitor, single point]
Nc1ccc(CSc2ccc(Cl)cc2)cc1 10 µM [inhibitor, partial curve]
CC(C)(C)c1ccc(/C=C/C(=O)Nc2ccc(S(N)(=O)=O)cc2)cc1 4.47 µM [inhibitor, full curve]
COc1ccc(Cn2c(C(=O)O)c(CNCCc3ccco3)c3ccc(OC)cc32)cc1 17.8 µM [inhibitor, partial curve]
CCc1nnc(NC(=O)Cc2ccc(OCc3c(C)noc3C)cc2)s1 28.2 µM [inhibitor, partial curve]
COc1ccc(CNC(=O)C(=O)NCC2CCCO2)cc1 (centres undefined) 39.8 µM [inhibitor, partial curve]
O=C(CN1CCNCC1)Nc1ccc(Oc2ccccc2)cc1 35.5 µM [inhibitor, partial curve]
CCCn1c(SCC(=O)Nc2ccccc2-c2ccccc2)nnc1-c1ccoc1C 20 µM [inhibitor, partial curve]

Activity change, negative = displacement, inactive:
C/C(CCN1CCCCc2nc(C)c(C)cc21)=N\OC[C@@H](O)COCc1ccco1 1.93% [at 15.3 µM]
